Measurements taken from paper PMC6919601, “Identification of Plasmodium dipeptidyl aminopeptidase allosteric inhibitors by high throughput screening” (PLoS ONE, 2019).
Out of some 110,000 compounds screened, about 230 (0.21%) showed an effect of 50% or more. The list shows a part of the results.

target: DPAP1 (Plasmodium falciparum, UniProt Q8IIJ9); assay: primary screen, percent inhibition; read by cleavage of a fluorogenic dipeptide substrate; higher = more effect of the substance; set-up: species or system P. falciparum D10 trophozoite lysates; single well
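Also: 30 min substrate incubation versus DMSO and 10 µM JCP410 controls.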

Sequence of DPAP1 (Q8IIJ9 whole entry, looked up): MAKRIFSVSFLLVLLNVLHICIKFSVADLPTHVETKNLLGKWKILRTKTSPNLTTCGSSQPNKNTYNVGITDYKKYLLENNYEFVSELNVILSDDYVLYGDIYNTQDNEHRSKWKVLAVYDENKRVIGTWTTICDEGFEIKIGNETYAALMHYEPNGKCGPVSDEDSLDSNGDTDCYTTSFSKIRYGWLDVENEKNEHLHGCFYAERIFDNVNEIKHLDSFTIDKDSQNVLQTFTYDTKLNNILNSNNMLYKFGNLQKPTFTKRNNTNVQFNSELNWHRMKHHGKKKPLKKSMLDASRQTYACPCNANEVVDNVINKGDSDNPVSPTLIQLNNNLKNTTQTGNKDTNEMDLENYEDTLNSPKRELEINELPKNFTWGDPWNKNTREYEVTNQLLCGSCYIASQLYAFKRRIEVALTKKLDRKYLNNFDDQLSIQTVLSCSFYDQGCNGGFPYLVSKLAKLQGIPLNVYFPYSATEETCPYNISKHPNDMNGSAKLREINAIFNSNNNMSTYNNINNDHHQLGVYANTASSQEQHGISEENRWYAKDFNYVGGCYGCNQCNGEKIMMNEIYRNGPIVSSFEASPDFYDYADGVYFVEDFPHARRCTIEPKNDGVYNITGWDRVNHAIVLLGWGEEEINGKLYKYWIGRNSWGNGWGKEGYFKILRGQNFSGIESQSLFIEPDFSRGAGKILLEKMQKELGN

| Structure (SMILES) | % Inhibition @ 10 uM [%] |
| --- | --- |
| COc1cc(NC(=O)c2sc3nc(-c4ccncc4)ccc3c2N)cc(OC)c1OC | -2.8 |
| COC(=O)C1=CNC=C(C(=O)OC)C1c1cccc(OCc2ccccc2)c1 | 1.37 |
| Cc1ccc2[nH]c3c(c2c1)CCCC3NCCO (centres unmarked) | -1.04 |
| COc1ccc(-c2nn(CCC(=O)O)c3nc(C)cc(C)c23)c(OC)c1 | -4.69 |
| O=C1OC(c2cccc3ccccc23)=N/C1=C/c1ccc(F)cc1 | -0.1 |
| COc1ccc(-n2ncc(C(=O)Nc3cccnc3)c2C2CCN(C(=O)OC(C)(C)C)CC2)cc1 | -3.65 |
| CC(CNC(=O)c1cnn(-c2ccccc2)c1-n1cccc1)c1ccccc1 (centres unmarked) | 3.4 |
| Cc1noc2ncnc(NCCCN3CCCC(C)C3)c12 (centres unmarked) | -6.14 |
| O=S1(=O)CCC(SC2CCS(=O)(=O)C2)C1 (centres unmarked) | -5.45 |
| CCc1nnc(NS(=O)(=O)c2ccc(NC(=O)c3ccccc3F)cc2)s1 | 7.4 |
| Cn1c(=O)c2sccc2n2c(CCCC(=O)NCc3ccc4c(c3)OCO4)nnc12 | 0.351 |
| Cc1ccc(CCNCc2c(C(=O)O)n(Cc3ccc(C)cc3)c3cc(C)ccc23)cc1 | 0.984 |
| O=C1NC(=S)NC(=O)C1=Cc1cn(Cc2ccc(Cl)cc2Cl)c2ccccc12 | 1.88 |
| COc1ccc(C2OCC3C(c4ccc(OC)c(OC)c4)OCC23)cc1OC (centres unmarked) | 3 |
| COc1ccc(-c2ccc(CO)cc2)cc1 | -5.96 |
| COc1cc(CCNCc2c(C(=O)O)c(C)n(Cc3ccc(C)cc3)c2C)cc(OC)c1OC | -1.92 |
| Cc1ccc(-n2c(=O)[nH]c3ccc(Cl)cc3c2=O)cc1 | -1.61 |
| CC1CCCC(NC(=O)C2CCN(C(=O)N(C)C)CC2)C1C (centres unmarked) | -1.34 |
| CCCN1C(=O)CN(C2CCCCCC2)C(=O)C1c1ccc(C)cc1 (centres unmarked) | -0.519 |
| Cc1c(CNCCCSC2CCCCC2)c(C(=O)O)c(C)n1Cc1ccccc1 | 6.02 |
| Cc1ccc(NC(=O)CN(c2cccc(Cl)c2C)S(C)(=O)=O)c(C)c1 | -0.496 |
| COc1ccc(S(=O)(=O)N(CC(=O)Nc2cccc(OC)c2)c2ccccc2)cc1 | 3.66 |
| c1ccc(Nc2nc(-c3ccccn3)cs2)cc1 | -1.37 |
| COc1cc(CN2CCN(c3ccccc3F)CC2)cc(Br)c1O | 3.16 |
| CCOc1ccc(/C=C/C(O)=C2/C(=O)NC3(C)CC2c2ccccc2O3)cc1OC (centres unmarked) | -3.21 |
| COc1ccc(C(=O)Sc2nc(C)cc(C)n2)cc1 | 54.6 |

| Structure (SMILES) | % Inhibition @ 10 uM [%] |
| --- | --- |
| N#Cc1nc2c(-c3nc4ccccc4s3)c(N)n(Cc3ccccc3)c2nc1C#N | 11.9 |
| CC[C@@H](C)[C@H](NC(=O)Nc1cccc(OC)c1)C(=O)N[C@@H](CCc1ccccc1)C(=O)COCc1ccccc1 | -7.36 |
| CS(=O)(=O)N(CC(=O)Nc1ccc(C(N)=O)cc1)c1cccc(Cl)c1 | -0.872 |
| Fc1ccc(N2CCN(Cc3cccs3)CC2)cc1 | -0.192 |
| CC1=Nc2nc3ccccc3n2C(c2cccnc2)/C1=C(/O)OC1CCCCC1 (centres unmarked) | -4.58 |
| Clc1cccc(CN2CCC(N3CCCCC3)CC2)c1 | 3.15 |
| CCOCCCNS(=O)(=O)c1ccc(-c2cc(C(F)(F)F)no2)s1 | 23.6 |
| Cc1ccnc(NC(=O)CCc2ccccc2)c1 | -6.91 |
| CCc1ccccc1NC(=O)C(C(C)C)N1C(=O)c2ccccc2C1=O (centres unmarked) | -6.68 |
| Oc1cccc(CN2CCN(c3ccc(Cl)cc3)CC2)c1 | 0.605 |
| O=C(COc1cc(Cl)ccc1Cl)NC(Cc1c[nH]c2ccccc12)C(=O)O (centres unmarked) | 3.27 |
| CC1=CCC2C(=O)N(CCc3c[nH]c4ccccc34)C(=O)C2C1 (centres unmarked) | -2.14 |
| CCOC(=O)c1c(C)[nH]c(C)c1S(=O)(=O)NC(C)Cc1ccco1 (centres unmarked) | -3.23 |
| COc1cccc(NC(=O)CN(Cc2ccc(C)cc2)S(=O)(=O)c2ccc(C)cc2)c1 | -4.63 |
| CCOC(=O)c1cnc2c(-c3ccccc3)c(-c3ccccc3)nn2c1C | 1.31 |
| C=CCn1c(SCC(=O)NCCCO)nc2sc(C)c(C)c2c1=O | -1.37 |
| CN(C)c1ccnc(SCC(=O)Nc2ccccc2)c1C#N | 3.47 |
| O=C(c1cccs1)N1N=C(c2cccs2)CC1c1ccco1 (centres unmarked) | -7.31 |
| Cc1cc(=O)oc2c3c(ccc12)OCN(Cc1ccccc1)C3 | 1.02 |
| O=C(Nc1ccc(Cl)cc1)C(O)c1ccccc1 (centres unmarked) | -3.77 |
| COc1ccc(Br)cc1CNC(=O)c1noc2c1CCCC2 | -1.7 |
| O=C(/C=C/c1ccccc1)N1CCC(c2ccccc2)C1 (centres unmarked) | -1.33 |
| COc1ccc(CN(C)C2CCN(C)CC2)cc1 | -3.65 |
| CC1CCC2C(=O)N(CNc3ccc(Cl)cc3)C(=O)C2C1 (centres unmarked) | 2.7 |
| Cc1ccc(C(C)C)cc1OCC(O)Cn1c(C)nc2ccccc21 (centres unmarked) | 23.1 |
| O=C(NCc1cccnc1)c1sc2cc(F)ccc2c1Cl | -2.56 |

| Structure (SMILES) | % Inhibition @ 10 uM [%] |
| --- | --- |
| CCCn1c2ccccc2c2cnn(CC(=O)NCc3ccc4c(c3)OCO4)c(=O)c21 | -0.238 |
| O=C(Cn1c(NCCCO)nc2ccccc21)c1ccc(Cl)c(Cl)c1 | 15.6 |
| COc1cc(-c2nc3cc(Br)c(C)nc3[nH]2)ccc1O | 15.9 |
| O=C1C2CCCCN2C(=O)N1CCN1CCN(c2ccc(F)cc2)CC1 (centres unmarked) | 1.39 |
| CC(=O)N1CCN(C2CC(=O)N(c3ccccc3)C2=O)CC1 (centres unmarked) | 4.3 |
| CC(C)Cn1c(=O)c2sccc2n2c(CCCC(=O)NC(C)CCc3ccccc3)nnc12 (centres unmarked) | -1.04 |
| CCOC(=O)c1c(S(=O)(=O)NCCCOC(C)C)c(C)n(C)c1C | 0.802 |
| COc1ccccc1C(=O)Nc1nc2c(C)cc(C)cc2s1 | -5.94 |
| Cc1ccc(-c2csc(Nc3ccc(Cl)c(Cl)c3)n2)cc1C | 0.345 |
| O=C(c1nc2nc(-c3ccccc3)cc(C(F)(F)F)n2n1)N1CCN(Cc2ccccc2)CC1 | -1.5 |
| O=C(NCCC1=CCCCC1)c1ccc(CS(=O)(=O)Cc2ccc(Cl)cc2)o1 | 0.387 |
| CC1(C)Cc2nc3sc4c(O)ncnc4c3cc2CO1 | 0.884 |
| Cc1nn(CC(=O)NCc2cccnc2)c(=O)c2cc3sccc3n12 | -5.19 |
| CC(=O)c1cccc(NC(=O)c2cc(F)c(Cl)nc2Cl)c1 | 1.93 |
| S=c1nc(-c2ccccc2)n(-c2ccccc2)c2c1CCCC2 | 3.65 |
| CC(C)c1ccc(NS(=O)(=O)c2ccc([N+](=O)[O-])cc2)cc1 | -1.05 |
| O=C(Nc1ccc(S(=O)(=O)N2CCCCC2)cc1)c1ccc(-c2ccccc2)cc1 | -1.17 |
| CN1CCCN(Cc2coc3c(Cl)cc(Cl)cc3c2=O)CC1 | -7.56 |
| CCS(=O)(=O)c1nc(S(=O)(=O)c2ccc(C)cc2)c(N2CCN(CCO)CC2)s1 | -0.522 |
| CCOc1cc(-n2cncn2)nc(-c2ccccc2)n1 | 3.53 |
| COC(=O)c1ccc(CN(C)C2CCN(C)CC2)cc1 | -1.64 |
| CC[C@H](C)[C@H](NC(=O)N1CCC(N2CCCCC2)CC1)C(=O)N[C@@H](CCc1ccccc1)C(=O)CO | 1.61 |
| COc1ccc(C2=NN(CCc3ccccn3)C(=O)C2)cc1 | -4.06 |
| Cc1ccc2[nH]c3c(N4CCCCC4)ncnc3c2c1 | -7.23 |
| Cc1cccc(OS(=O)(=O)NC(=O)OCC2CCCN3CCCCC23)c1 (centres unmarked) | 0.9 |
| CCN(CC)CCn1c2ccc(C)cc2c2nc3ccccc3nc21 | 3.36 |

| Structure (SMILES) | % Inhibition @ 10 uM [%] |
| --- | --- |
| Cc1[nH]c2ccccc2c1C=C1C(=O)N(C)C(=O)N(C)C1=O | 0.266 |
| Cc1cccc2sc(NC(=O)Cn3cccc3)nc12 | -2.42 |
| CCCN(CCC)C(=O)/C(=C/c1cn(CC)c2ccccc12)NC(=O)c1ccccc1 | 1.64 |
| CCOc1ccc(CN2CCCN(C)CC2)cc1 | 4.67 |
| CC(NC(=O)Cc1ccccc1)c1cc2c(cc1Br)OCCO2 (centres unmarked) | -3.26 |
| COc1cc(NC(=O)c2cccc(OC(F)F)c2)c(OC)cc1Cl | -2.83 |
| O=S(=O)(NCC1CCCO1)c1cc(Cl)ccc1Cl (centres unmarked) | 3.48 |
| O=c1oc2c3c(ccc2c2c1CCCC2)OCN(c1cccnc1)C3 | 1.27 |
| CCC(C)/N=c1/c(-c2ccc(C(C)C)cc2)c(O)c1=O (centres unmarked) | -7.52 |
| Cc1ccc2c(NC(=O)c3ccccc3F)cccc2n1 | -2.91 |
| O=S1(=O)Oc2cc(S(=O)(=O)N3CCn4c(nc5ccccc54)C3)cc3cccc1c23 | -1.08 |
| O=C(O)CN1C(=O)c2ccc(Oc3ccc(Cl)cc3)cc2C1=O | 4.83 |
| CCOc1cc(-n2ccc(C)n2)nc(-c2ccccc2)n1 | 1.59 |
| CC(C)CC(C(=O)NCC#N)c1cccc(-c2ccc(S(=O)(=O)N3CCNCC3)cc2)c1 (centres unmarked) | -4.72 |
| CCOC(=O)C1CCN(C2CCC(C)CC2)CC1 (centres unmarked) | -0.0953 |
| c1ccc(CCNc2nc3ccccc3c3nc(-c4ccccc4)nn23)cc1 | -2.42 |
| CCOCCCNC(=O)C1CCC(=O)N1CCc1ccccc1 (centres unmarked) | 3.24 |
| O=C1CCCC(c2cnc3ccccc3c2)C1 (centres unmarked) | -0.759 |
| Cc1nc(/N=C(/NC(=O)c2ccccc2)Nc2ccccc2)nc(O)c1C | -3.92 |
| C1=C(c2ccccc2)CCN(c2nn3nnnc3c3ccccc23)C1 | 0.451 |
| COc1cc2c(cc1OC)C(c1ccccn1)NCC2 (centres unmarked) | -3.62 |
| COc1cccc(CN2Cc3ccccc3C2=O)c1 | -7.23 |
| Cc1ccccc1-c1nn2c(Cn3cnc4ccccc43)nnc2s1 | 7.5 |
